# The supplement of paper PMC9174493
# The list shows a part of the results. Single values of this set are uncertain. Values with irradiation are relative to irradiated vehicle.
# System: A549-Dual
# Test: NF-kB reporter (SEAP) activity, viability-corrected, relative to vehicle (fold change vs vehicle); higher = more activation of STING-IRF / NF-kB immune response reporter
# Details: 3 µM; irradiation: 8 Gy/4 fr
# 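Note: viability correction based on the alamar blue assay, with concentrations leaving 10% survival or less dropped.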
row,Structure (SMILES),NF-kB reporter
1,CC(C(=O)O)c1cccc(C(=O)c2ccccc2)c1 (configuration not stated) [Ketoprofen],1.48
2,CNC1CCC(c2ccc(Cl)c(Cl)c2)c2ccccc21.Cl (configuration not stated) [Sertraline HCl],1.37
3,CC1(C)OC2CC3C4CCC5=CC(=O)CCC5(C)C4(F)C(O)CC3(C)C2(C(=O)CCl)O1 (configuration not stated) [Halcinonide],1.37
4,CC(=O)OC12COC1CC(O)C1(C)C(=O)C(O)C3=C(C)C(OC(=O)C(O)C(NC(=O)OC(C)(C)C)c4ccccc4)CC(O)(C(OC(=O)c4ccccc4)C21)C3(C)C (configuration not stated) [Docetaxel],1.18
5,CCN(CC)Cc1cc(Nc2ccnc3cc(Cl)ccc23)ccc1O.Cl.Cl [Amodiaquine hydrochloride],1.38
6,Cc1c(N)c(=O)n(-c2ccccc2)n1C [4-Aminoantipyrine],1.1
7,Cn1cnc2c(F)c(Nc3ccc(Br)cc3F)c(C(=O)NOCCO)cc21,1.24
8,CC1(C)C2CCC1(C)C(O)C2 (configuration not stated) [Borneol],1.1
9,CC1CC2C3CCC4=CC(=O)C=CC4(C)C3(Cl)C(O)CC2(C)C1(OC(=O)c1ccco1)C(=O)CCl (configuration not stated) [Mometasone furoate],0.865
10,CCN(CC)CCCC(C)Nc1ccnc2cc(Cl)ccc12.O=P(O)(O)O.O=P(O)(O)O (configuration not stated) [Chloroquine Phosphate],1.28
11,"COc1cc2c(cc1Cc1cccc(Cl)c1F)c(=O)c(C(=O)O)cn2C(CO)C(C)C (configuration not stated) [Elvitegravir (GS-9137, JTK-303)]",1.48
12,O=c1[nH]c(=O)n(C2CC(O)C(CO)O2)cc1F (configuration not stated) [Floxuridine],1.4
